Data taken from PMC10641171.
These are yes or no findings as the source states them, for the method shown. Sequences can lack the tags named with a protein.

Chains of the proteins cited; added tags and fusions are not shown.
UniProt O15527: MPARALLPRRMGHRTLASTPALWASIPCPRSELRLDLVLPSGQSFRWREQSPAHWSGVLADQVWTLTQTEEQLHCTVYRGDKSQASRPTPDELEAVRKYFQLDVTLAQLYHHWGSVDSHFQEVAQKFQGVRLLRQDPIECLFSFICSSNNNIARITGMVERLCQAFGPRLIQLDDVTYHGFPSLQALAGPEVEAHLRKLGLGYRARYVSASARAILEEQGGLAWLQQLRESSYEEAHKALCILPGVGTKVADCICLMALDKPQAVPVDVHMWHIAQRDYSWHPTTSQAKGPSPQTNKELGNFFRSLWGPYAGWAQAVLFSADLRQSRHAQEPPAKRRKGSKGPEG

Molecular target: Recombinant His-OGG1 (UniProt O15527)
Test: pull-down; reverse pull-down: His-OGG1 used to pull down GST-MSK1 and its mutants (Fig. S5B); both purified

B1: GST-MSK1 330-803 (domain or fragment, UniProt O75582 330-802)
chain: KVPAPFKPVIRDELDVSNFAEEFTEMDPTYSPAALPQSSEKLFQGYSFVAPSILFKRNAAVIDPLQFHMGVERPGVTNVARSAMMKDSPFYQHYDLDLKDKPLGEGSFSICRKCVHKKSNQAFAVKIISKRMEANTQKEITALKLCEGHPNIVKLHEVFHDQLHTFLVMELLNGGELFERIKKKKHFSETEASYIMRKLVSAVSHMHDVGVVHRDLKPENLLFTDENDNLEIKIIDFGFARLKPPDNQPLKTPCFTLHYAAPELLNQNGYDESCDLWSLGVILYTMLSGQVPFQSHDRSLTCTSAVEIMKKIKKGDFSFEGEAWKNVSQEAKDLIQGLLTVDPNKRLKMSGLRYNEWLQDGSQLSSNPLMTPDILGSSGAAVHTCVKATFHAFNKYKREGFCLQNVDKAPLAKRRKMKKTSTSTETRSSSSESSHSSSSHSHGKTTPTKTLQPSNPADSNNPETLFQFSDSVA
Q: With B1 as the binder, how does the binding read?
A: no binding
